Whole data set: some 33,000 sequences, median “E-score (-0.5 to 0.5)” near -0.011, cut for the highest 2% near 0.28. The list shows a part of the results.
The sequences below were run against T1, Gcr1 (UniProt P07261) (assay: PBM E-score (8-mer binding enrichment) (E-score (-0.5 to 0.5)); higher = stronger / more preferred TF binding; most listed sequences are background and not binding sites). Conditions: protein concentration: 100 nM; construct: GST-full length.
T1 sequence: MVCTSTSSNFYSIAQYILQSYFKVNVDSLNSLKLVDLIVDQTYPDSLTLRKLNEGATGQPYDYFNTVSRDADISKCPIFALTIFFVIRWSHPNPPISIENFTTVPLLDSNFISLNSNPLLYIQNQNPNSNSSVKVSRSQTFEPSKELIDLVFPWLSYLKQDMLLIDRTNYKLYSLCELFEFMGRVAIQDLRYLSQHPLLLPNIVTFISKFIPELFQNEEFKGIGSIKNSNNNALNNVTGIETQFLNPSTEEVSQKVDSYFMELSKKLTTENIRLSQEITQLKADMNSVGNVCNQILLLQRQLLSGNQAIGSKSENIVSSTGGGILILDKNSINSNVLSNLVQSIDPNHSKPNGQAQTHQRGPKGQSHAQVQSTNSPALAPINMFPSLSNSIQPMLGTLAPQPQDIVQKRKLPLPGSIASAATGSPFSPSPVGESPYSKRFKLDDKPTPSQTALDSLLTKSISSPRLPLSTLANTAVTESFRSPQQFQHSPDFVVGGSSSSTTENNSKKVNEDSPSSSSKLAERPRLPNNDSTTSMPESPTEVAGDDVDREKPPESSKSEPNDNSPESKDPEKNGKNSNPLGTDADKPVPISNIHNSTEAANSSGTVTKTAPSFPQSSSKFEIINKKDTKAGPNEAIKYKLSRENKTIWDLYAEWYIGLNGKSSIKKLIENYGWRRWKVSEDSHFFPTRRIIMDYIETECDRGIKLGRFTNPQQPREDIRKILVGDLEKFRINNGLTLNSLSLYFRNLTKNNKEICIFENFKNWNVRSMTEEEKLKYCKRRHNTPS
Procedure, shortened: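 The E-score, a modified Wilcoxon-Mann-Whitney statistic, was computed by the Universal PBM Analysis Suite for every ungapped eight-base word pooled with its reverse complement. Scans behind it were normalised with masliner after bound GST-tagged yeast transcription factors were detected with fluorescent anti-GST. The proteins, at about 100-200 nM, had been applied to universal all-10-mer Agilent arrays made double-stranded by primer extension.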

First: AATCAGAT
Second: AAGTCGGA
The “PBM E-score” value of the first is lower: -0.0345 for the first, 0.0426 for the second.

First: AGAATGAC
Second: ACCTCAGG
The “PBM E-score” value of the first is lower: -0.184 for the first, 0.0232 for the second.

First: GTTCCAAC
Second: ACTCGCTG
The “PBM E-score” value of the first is higher: 0.0801 for the first, -0.027 for the second.

Going from ACCAATCG to GTCCGGAC, the “PBM E-score” value falls from -0.057 to -0.24.

First: CACCCGGC
Second: CTCGCCAG
The “PBM E-score” value of the first is lower: -0.0953 for the first, -0.0824 for the second.

Going from TAGTTACA to AAGTGAAT, the “PBM E-score” value falls from 0.108 to -0.00472.

Going from CAGTCTTC to CAGAGGCG, the “PBM E-score” value rises from -0.0594 to -0.024.

First: AGTATGCA
Second: AAGAGTTG
The “PBM E-score” value of the first is higher: 0.0208 for the first, -0.0408 for the second.

Going from GCGGACAA to AGGGAGGG, the “PBM E-score” value rises from -0.155 to 0.0631.

First: GGCTATCA
Second: AGTAGTGA
The “PBM E-score” value of the first is higher: -0.108 for the first, -0.155 for the second.

First: AGAGGGAT
Second: CTCTACCA
The “PBM E-score” value of the first is higher: -0.141 for the first, -0.215 for the second.

Compared with CACTCGAA, CACTATCG is higher in “PBM E-score” value: -0.00234 for the first, 0.0304 for the second.

Going from TGATGGCA to ATGATTGC, the “PBM E-score” value falls from -0.0703 to -0.192.

Compared with AGCTTCGG, CGATACTA is lower in “PBM E-score” value: 0.17 for the first, 0.0787 for the second.

Going from CTTCCGGC to CCTCGAGG, the “PBM E-score” value falls from 0.111 to 0.031.

Compared with CACTGGCC, CTCCGCAA is higher in “PBM E-score” value: -0.235 for the first, 0.0291 for the second.

First: CCATTAAA
Second: AGAAGATA
The “PBM E-score” value of the first is lower: 0.139 for the first, 0.141 for the second.

First: CGTTTATA
Second: AGGCACAC
The “PBM E-score” value of the first is higher: 0.18 for the first, -0.148 for the second.

Compared with GATAAGCA, ACGCAGCA is lower in “PBM E-score” value: 0.057 for the first, -0.0163 for the second.

Compared with AGGGGTGC, CATCTGAG is higher in “PBM E-score” value: 0.0379 for the first, 0.187 for the second.

Compared with GTGAGAGA, ACGTGACC is higher in “PBM E-score” value: -0.215 for the first, -0.103 for the second.

Going from TCCGAAAA to ACTCTCGG, the “PBM E-score” value falls from 0.222 to -0.101.

Compared with ACACCTCA, ACCGGCTC is lower in “PBM E-score” value: 0.0722 for the first, -0.0398 for the second.

Compared with ATAACTAG, GACGCACA is lower in “PBM E-score” value: 0.12 for the first, -0.0013 for the second.

First: ACCCTGAG
Second: CTATGATC
The “PBM E-score” value of the first is higher: 0.0519 for the first, -0.128 for the second.

Going from GTTCAAAA to CCAGGTTA, the “PBM E-score” value rises from 0.0537 to 0.056.

Compared with CAAAGACC, GATGGACA is lower in “PBM E-score” value: 0.00996 for the first, -0.0299 for the second.

First: CACCCATA
Second: GAATCGGC
The “PBM E-score” value of the first is lower: 0.0425 for the first, 0.11 for the second.

Going from ACACGATC to CATCCGCC, the “PBM E-score” value falls from 0.0856 to -0.0197.

First: AGGCTGGA
Second: ACTAATCT
The “PBM E-score” value of the first is lower: -0.133 for the first, 0.111 for the second.

First: CGCGCCCC
Second: ATGACCTA
The “PBM E-score” value of the first is higher: 0.243 for the first, -0.226 for the second.

Going from AGATTAGA to AAGTTCGT, the “PBM E-score” value rises from -0.0228 to 0.0698.

First: GAGCTGCA
Second: CCGTCATC
The “PBM E-score” value of the first is higher: -0.0802 for the first, -0.159 for the second.

Going from ATGATTCA to GAATACCC, the “PBM E-score” value rises from -0.105 to 0.0233.

Going from CAGACTCC to CGCCAGAC, the “PBM E-score” value falls from 0.172 to 0.043.

First: ACAAGTAA
Second: CTTTATAC
The “PBM E-score” value of the first is lower: 0.0253 for the first, 0.063 for the second.

Going from AGACGAGC to GCCTCCAA, the “PBM E-score” value rises from -0.0948 to 0.0769.

First: CCATGACG
Second: CTGCGCTA
The “PBM E-score” value of the first is lower: -0.036 for the first, -0.00164 for the second.

First: GCCGGAGA
Second: AGTAGAAT
The “PBM E-score” value of the first is lower: -0.0663 for the first, -0.00816 for the second.

Compared with CTGGTCTA, GCCGACTA is higher in “PBM E-score” value: -0.243 for the first, 0.00147 for the second.

Compared with CGACATCC, AGATTTCC is lower in “PBM E-score” value: 0.166 for the first, -0.0328 for the second.

Going from ACGTTCTA to AAGGCAAA, the “PBM E-score” value falls from -0.013 to -0.168.

Compared with CAACGGGA, ACCGCTTG is lower in “PBM E-score” value: 0.0126 for the first, -0.0218 for the second.

First: GTGGTACA
Second: CGCGTGAC
The “PBM E-score” value of the first is lower: -0.105 for the first, 0.135 for the second.

First: AACAGGAG
Second: CTAAAATC
The “PBM E-score” value of the first is lower: -0.0445 for the first, 0.111 for the second.

First: TGAAATAA
Second: GCTTTTAA
The “PBM E-score” value of the first is higher: 0.0918 for the first, 0.0873 for the second.

Compared with TCGCGAAA, TACGAGAA is higher in “PBM E-score” value: 0.0716 for the first, 0.119 for the second.

First: CCGCATCG
Second: TACTACTA
The “PBM E-score” value of the first is lower: -0.0819 for the first, 0.147 for the second.

Going from CCACTGAG to GATCCAAA, the “PBM E-score” value falls from 0.182 to 0.0721.

First: AGCACTGG
Second: AGTCCGAG
The “PBM E-score” value of the first is higher: -0.0389 for the first, -0.0645 for the second.

Compared with ACAACCAT, AGCTCACC is lower in “PBM E-score” value: 0.00146 for the first, 0.00067 for the second.

First: CGAATCAG
Second: AGTACAGA
The “PBM E-score” value of the first is lower: -0.0648 for the first, 0.155 for the second.

Going from TACCGGGA to AACATTAA, the “PBM E-score” value falls from 0.18 to 0.0199.

Going from ACACTCGT to CTCATCTA, the “PBM E-score” value rises from -0.152 to -0.077.

First: CGCGATTC
Second: AGATCACC
The “PBM E-score” value of the first is higher: 0.0683 for the first, -0.0945 for the second.

Going from ACCGCATC to ACGCCCCG, the “PBM E-score” value falls from -0.017 to -0.054.

Going from CCTGACAC to CGGCGCCA, the “PBM E-score” value rises from 0.151 to 0.308.

Going from CAGAGCCG to GATAGTGC, the “PBM E-score” value falls from 0.115 to -0.0925.

First: ACTAATGG
Second: CATCCCAC
The “PBM E-score” value of the first is higher: 0.122 for the first, 0.0413 for the second.

Going from GATTCAAA to GAGTTATC, the “PBM E-score” value falls from 0.0575 to -0.154.

Compared with CACCTTTA, AGTGTGTA is higher in “PBM E-score” value: 0.0192 for the first, 0.0322 for the second.

Compared with AAGAGGAG, ATACCTAG is higher in “PBM E-score” value: -0.0404 for the first, -0.0202 for the second.

First: GACCGGGA
Second: CTAGCTAC
The “PBM E-score” value of the first is higher: 0.0433 for the first, 0.0361 for the second.

Going from ATGGCAAT to GATTTACC, the “PBM E-score” value rises from -0.0868 to 0.155.

Going from GTAATTGA to ACACCACT, the “PBM E-score” value rises from 0.177 to 0.26.

Compared with CCACCCGC, AACAAGCT is lower in “PBM E-score” value: 0.00328 for the first, -0.239 for the second.

Going from GTTTGGGA to AATGTCCA, the “PBM E-score” value rises from -0.0986 to 0.0143.

First: CAAATTCA
Second: CGTTTGAG
The “PBM E-score” value of the first is higher: -0.0459 for the first, -0.183 for the second.

Compared with CCACACGA, TAAGCTCA is lower in “PBM E-score” value: 0.0146 for the first, -0.0536 for the second.

Going from AAGCTCAG to AAACGAAA, the “PBM E-score” value falls from 0.0786 to -0.0157.

First: CATAGCGC
Second: CATAACGC
The “PBM E-score” value of the first is higher: 0.125 for the first, -0.0716 for the second.

Compared with AGATATCA, TGGTATAA is higher in “PBM E-score” value: -0.0158 for the first, 0.182 for the second.

Compared with GAACTTCC, AAACTTCC is lower in “PBM E-score” value: 0.248 for the first, 0.0871 for the second.

Going from GATATACC to GATGTGAA, the “PBM E-score” value rises from -0.0609 to -0.0483.

Compared with TAGGAACA, GTTCCCCA is higher in “PBM E-score” value: 0.0697 for the first, 0.0853 for the second.

First: AACGCGTT
Second: GCGAAATA
The “PBM E-score” value of the first is lower: -0.149 for the first, -0.112 for the second.

Going from AAAACATC to CAACAGAG, the “PBM E-score” value falls from 0.102 to 0.0878.

Compared with AACGCGTC, CCATTCCA is higher in “PBM E-score” value: -0.138 for the first, 0.192 for the second.

First: CTGGGAGC
Second: AGGAGGGC
The “PBM E-score” value of the first is higher: 0.237 for the first, -0.143 for the second.

Compared with CGGAGACA, CCATACCC is lower in “PBM E-score” value: -0.0111 for the first, -0.0393 for the second.

Going from GGCACCGA to CTGTGGGC, the “PBM E-score” value falls from 0.168 to 0.0855.

Compared with AATCGCGC, AAAATTCG is lower in “PBM E-score” value: -0.146 for the first, -0.169 for the second.

Going from ACCCTTAT to CCCCCGGA, the “PBM E-score” value rises from -0.201 to -0.0989.

First: GAAGCAAC
Second: CGCGGTGA
The “PBM E-score” value of the first is lower: -0.154 for the first, 0.0534 for the second.

Going from TAACCGCA to CGATCAAA, the “PBM E-score” value falls from 0.0873 to -0.0595.

Compared with AGGAATTA, CCTCCCCG is higher in “PBM E-score” value: 0.0425 for the first, 0.0903 for the second.

— the supplement of paper PMC3334620
